In the supplement of paper PMC4967469:

Assays:
Test in all cases: Viability of human cancer cell lines after 72 h of drug (GDSC screen)
NG-25 = compound: CCN1CCN(Cc2ccc(NC(=O)c3ccc(C)c(Oc4ccnc5[nH]ccc45)c3)cc2C(F)(F)F)CC1 [NG-25]; details: top dose 10.24 µM; top dose inferred
Method: (§1)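 Human cancer cell lines in 384-well plates, medium with 10% serum, drug for 72 h over a 256-fold dose range (nine 2-fold or five 4-fold steps up to the top dose). Adherent lines were fixed and stained with the nucleic acid dye Syto60, suspension lines read with resazurin; signal relative to control wells, capped at 0 and 100%. One two-parameter sigmoid per drug and line, fitted in a mixed model over all curves with the slope shared within a line.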

GSK-1904529A = compound: CCc1cc(Nc2nccc(-c3c(-c4ccc(OC)c(C(=O)Nc5c(F)cccc5F)c4)nc4ccccn34)n2)c(OC)cc1N1CCC(N2CCN(S(C)(=O)=O)CC2)CC1 [GSK-1904529A]; details: top dose 1.024 µM; top dose inferred
Method: as §1

PFI-1 = compound: COc1ccccc1S(=O)(=O)Nc1ccc2c(c1)CN(C)C(=O)N2 [PFI-1]; details: top dose 10 µM; top dose inferred
Method: as §1

Tipifarnib = compound: Cn1cncc1[C@@](N)(c1ccc(Cl)cc1)c1ccc2c(c1)c(-c1cccc(Cl)c1)cc(=O)n2C [Tipifarnib]; details: top dose 16 µM; top dose inferred
Method: as §1

In the case of Hs-578-T (breast, adherent), the AUC (NG-25) is reported as 0.984, the IC50 (NG-25) is reported as over 10.2 µM and the AUC (GSK-1904529A) is reported as 0.987. It also gave an IC50 (GSK-1904529A) of over 1.02 µM, an AUC (PFI-1) of 0.89 and an IC50 (PFI-1) of over 10 µM. It also gave an AUC (Tipifarnib) of 0.836 and an IC50 (Tipifarnib) of 11.6 µM.

For SK-MEL-3 (melanoma, adherent), the AUC (NG-25) was 0.749, the IC50 (NG-25) was 3.8 µM and the AUC (GSK-1904529A) was 0.967. For the same cell line, the IC50 (GSK-1904529A) was over 1.02 µM, the AUC (PFI-1) was 0.943 and the IC50 (PFI-1) was over 10 µM. It also gave an AUC (Tipifarnib) of 0.671 and an IC50 (Tipifarnib) of 3.26 µM.

HCC1806 (breast, adherent) showed an AUC (NG-25) of 0.941, an IC50 (NG-25) of over 10.2 µM and an AUC (GSK-1904529A) of 0.965. It also gave an IC50 (GSK-1904529A) of over 1.02 µM, an AUC (PFI-1) of 0.904 and an IC50 (PFI-1) of over 10 µM. For the same cell line, the AUC (Tipifarnib) was 0.839 and the IC50 (Tipifarnib) was 9.64 µM.

Cell Line AsPC-1 (pancreas, adherent) has an AUC (NG-25) of 0.901, an IC50 (NG-25) of over 10.2 µM and an AUC (GSK-1904529A) of 0.964. For the same cell line, the IC50 (GSK-1904529A) was over 1.02 µM, the AUC (PFI-1) was 0.873 and the IC50 (PFI-1) was over 10 µM. It also gave an AUC (Tipifarnib) of 0.906 and an IC50 (Tipifarnib) of over 16 µM.

Cell Line H2722 (mesothelioma, adherent) has an AUC (NG-25) of 0.932, an IC50 (NG-25) of over 10.2 µM and an AUC (GSK-1904529A) of 0.967. It also gave an IC50 (GSK-1904529A) of over 1.02 µM, an AUC (PFI-1) of 0.884 and an IC50 (PFI-1) of over 10 µM. For the same cell line, the AUC (Tipifarnib) was 0.711 and the IC50 (Tipifarnib) was 4.46 µM.

For “DMS-53 (small cell lung carcinoma, adherent)”, the AUC (NG-25) was 0.988, the IC50 (NG-25) was over 10.2 µM and the AUC (GSK-1904529A) was 0.96. The IC50 (GSK-1904529A) was over 1.02 µM, the AUC (PFI-1) was 0.841 and the IC50 (PFI-1) was 7.69 µM. It also gave an AUC (Tipifarnib) of 0.911 and an IC50 (Tipifarnib) of over 16 µM.

HCT-15 (large intestine, adherent) showed an AUC (NG-25) of 0.853, an IC50 (NG-25) of 8.75 µM and an AUC (GSK-1904529A) of 0.983. For the same cell line, the IC50 (GSK-1904529A) was over 1.02 µM, the AUC (PFI-1) was 0.985 and the IC50 (PFI-1) was over 10 µM. The AUC (Tipifarnib) was 0.315 and the IC50 (Tipifarnib) was 0.294 µM.

With WM-115 (melanoma, adherent) the AUC (NG-25) was 0.869, the IC50 (NG-25) was over 10.2 µM and the AUC (GSK-1904529A) was 0.957. For the same cell line, the IC50 (GSK-1904529A) was over 1.02 µM, the AUC (PFI-1) was 0.905 and the IC50 (PFI-1) was over 10 µM. For the same cell line, the AUC (Tipifarnib) was 0.965 and the IC50 (Tipifarnib) was over 16 µM.

Saos-2 (osteosarcoma, adherent) gave an AUC (NG-25) of 0.981, an IC50 (NG-25) of over 10.2 µM and an AUC (GSK-1904529A) of 0.975. For the same cell line, the IC50 (GSK-1904529A) was over 1.02 µM, the AUC (PFI-1) was 0.911 and the IC50 (PFI-1) was over 10 µM. The AUC (Tipifarnib) was 0.844 and the IC50 (Tipifarnib) was over 16 µM.

In the case of OVCAR-3 (ovary, adherent), the AUC (NG-25) is reported as 0.986, the IC50 (NG-25) is reported as over 10.2 µM and the AUC (GSK-1904529A) is reported as 0.975. For the same cell line, the IC50 (GSK-1904529A) was over 1.02 µM, the AUC (PFI-1) was 0.887 and the IC50 (PFI-1) was over 10 µM. The AUC (Tipifarnib) was 0.788 and the IC50 (Tipifarnib) was 7.82 µM.

Work on “COR-L23 (large cell lung carcinoma, adherent)” yielded an AUC (NG-25) of 0.889, an IC50 (NG-25) of over 10.2 µM and an AUC (GSK-1904529A) of 0.985. The IC50 (GSK-1904529A) was over 1.02 µM, the AUC (PFI-1) was 0.948 and the IC50 (PFI-1) was over 10 µM. For the same cell line, the AUC (Tipifarnib) was 0.795 and the IC50 (Tipifarnib) was 7.21 µM.

In the case of HCC1419 (breast, adherent), the AUC (NG-25) is reported as 0.958, the IC50 (NG-25) is reported as over 10.2 µM and the AUC (GSK-1904529A) is reported as 0.982. It also gave an IC50 (GSK-1904529A) of over 1.02 µM, an AUC (PFI-1) of 0.92 and an IC50 (PFI-1) of over 10 µM. For the same cell line, the AUC (Tipifarnib) was 0.717 and the IC50 (Tipifarnib) was 5.44 µM.

OVKATE (ovary, adherent) was tested, and the AUC (NG-25) was 0.652, the IC50 (NG-25) was 2.24 µM and the AUC (GSK-1904529A) was 0.979. The IC50 (GSK-1904529A) was over 1.02 µM, the AUC (PFI-1) was 0.859 and the IC50 (PFI-1) was over 10 µM. For the same cell line, the AUC (Tipifarnib) was 0.921 and the IC50 (Tipifarnib) was over 16 µM.

Work on DBTRG-05MG (glioma, adherent) yielded an AUC (NG-25) of 0.896, an IC50 (NG-25) of over 10.2 µM and an AUC (GSK-1904529A) of 0.984. For the same cell line, the IC50 (GSK-1904529A) was over 1.02 µM, the AUC (PFI-1) was 0.894 and the IC50 (PFI-1) was over 10 µM. It also gave an AUC (Tipifarnib) of 0.761 and an IC50 (Tipifarnib) of 6.62 µM.

Work on 786-0 (kidney, adherent) yielded an AUC (NG-25) of 0.863, an IC50 (NG-25) of 7.68 µM and an AUC (GSK-1904529A) of 0.952. For the same cell line, the IC50 (GSK-1904529A) was over 1.02 µM, the AUC (PFI-1) was 0.865 and the IC50 (PFI-1) was 7.68 µM. The AUC (Tipifarnib) was 0.191 and the IC50 (Tipifarnib) was 0.133 µM.

By IC50 is meant the dose at which the fit gives 50% viability; a limit (>, <) means that the fit lies beyond the doses tested. The AUC spans the tested range (256-fold, ending at the top dose) of the same fit: 1 means no effect, lower means more sensitive. Where the top dose is marked as inferred, it is not printed in the source and was worked back from the curve model.
